Experimental findings from PMC4336329 (PLoS ONE, 2015) are described below.

Structures are written as SMILES. Hit rate of the full screen: of about 310,000 compounds, about 2,200 (0.71%) showed an effect of 50% or more. The effect is printed as a negative number. The list shows a part of the results.

For this test, the target named is human ether-à-go-go-related gene (hERG) potassium channel (human, UniProt Q12809). Kind of test: primary screen, population patch clamp on CHO cells stably expressing hERG.
Sequence of human ether-à-go-go-related gene (hERG) potassium channel (Q12809 whole entry, looked up): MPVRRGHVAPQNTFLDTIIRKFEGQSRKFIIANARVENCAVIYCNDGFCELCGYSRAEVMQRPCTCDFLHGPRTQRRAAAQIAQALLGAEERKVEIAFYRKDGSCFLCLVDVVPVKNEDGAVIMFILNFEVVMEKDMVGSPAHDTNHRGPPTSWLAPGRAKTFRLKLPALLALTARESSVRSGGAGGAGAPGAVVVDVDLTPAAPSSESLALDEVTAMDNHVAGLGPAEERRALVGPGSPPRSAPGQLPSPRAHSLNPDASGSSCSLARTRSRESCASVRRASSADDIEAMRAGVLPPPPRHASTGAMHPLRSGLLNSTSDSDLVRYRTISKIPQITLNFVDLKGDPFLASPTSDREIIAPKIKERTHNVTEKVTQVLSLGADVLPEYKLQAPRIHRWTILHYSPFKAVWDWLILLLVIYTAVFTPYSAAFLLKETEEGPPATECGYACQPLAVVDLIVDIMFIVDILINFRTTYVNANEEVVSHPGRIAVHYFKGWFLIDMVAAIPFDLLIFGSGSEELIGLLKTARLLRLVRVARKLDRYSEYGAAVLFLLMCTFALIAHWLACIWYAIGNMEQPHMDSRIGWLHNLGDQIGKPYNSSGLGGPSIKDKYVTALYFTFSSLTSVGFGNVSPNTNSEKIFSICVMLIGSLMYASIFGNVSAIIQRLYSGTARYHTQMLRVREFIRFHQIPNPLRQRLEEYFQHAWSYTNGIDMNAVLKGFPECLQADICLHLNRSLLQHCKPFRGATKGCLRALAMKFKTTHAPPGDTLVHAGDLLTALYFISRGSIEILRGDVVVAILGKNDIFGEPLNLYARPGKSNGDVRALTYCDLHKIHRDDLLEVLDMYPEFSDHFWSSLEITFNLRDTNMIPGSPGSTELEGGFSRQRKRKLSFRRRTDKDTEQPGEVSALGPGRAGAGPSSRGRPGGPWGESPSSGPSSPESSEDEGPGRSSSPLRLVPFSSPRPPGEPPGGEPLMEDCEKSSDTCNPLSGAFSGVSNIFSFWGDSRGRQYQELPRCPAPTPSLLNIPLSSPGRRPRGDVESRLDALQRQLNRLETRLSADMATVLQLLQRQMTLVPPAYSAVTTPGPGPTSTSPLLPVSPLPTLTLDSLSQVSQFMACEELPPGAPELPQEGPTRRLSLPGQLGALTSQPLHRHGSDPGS
Turning to `CC(C)CN(C(=O)COC(=O)CCSc1ccc(F)cc1)c1c(N)n(Cc2ccccc2)c(=O)[nH]c1=O`, the “hERG current change (%, negative = inhibition) at 1uM” value was found to be 3.01%.

In the case of `CN(C)c1nc(N(C)C)nc(N2CCCCC2)n1`, the “hERG current change (%, negative = inhibition) at 1uM” value came out at 11.4%. As for `CCOC(=O)c1oc2ccccc2c1NC(=O)c1ccco1`, the “hERG current change (%, negative = inhibition) at 1uM” value is 4.43%.

Consider `O=C(CSc1nnc(CNc2cccc(Cl)c2)o1)OC1CCCCC1`, for which the “hERG current change (%, negative = inhibition) at 1uM” value is 0.318%. The result for `CCCCSC(=S)N(C)C1CCS(=O)(=O)C1` (centres unmarked) reads 8.03%; that for `COc1ccc(S(=O)(=O)N2CCC(C(=O)Nc3ccc(S(=O)(=O)N4CCCC4)cc3)CC2)cc1OC`, 17.9%. Take `COc1cc(C(=O)NCC2CCCO2)ccc1OCc1ccccc1` (centres unmarked): the “hERG current change (%, negative = inhibition) at 1uM” value worked out at 9.88%. Take `CCOC(=O)c1c(NC(=O)C2CCCN(S(=O)(=O)c3ccccc3)C2)sc2c1CCCC2` (centres unmarked): the “hERG current change (%, negative = inhibition) at 1uM” value is 6.71%. On to `CCOc1ccc(N(C(C)C(=O)Nc2ccc(OC)cc2)S(C)(=O)=O)cc1` (centres unmarked), for which the “hERG current change (%, negative = inhibition) at 1uM” value stood at 5.59%.

Turning to `CCOc1ccc(CCNC(=O)COC(=O)c2ccc(Cl)nc2)cc1OCC`, the “hERG current change (%, negative = inhibition) at 1uM” value stood at 16.7%. `O=C(NC1=NCCS1)c1sc2cc(Cl)cc(Cl)c2c1Cl`: the “hERG current change (%, negative = inhibition) at 1uM” value came out at 14.9%. The result for `O=C1CCC(C(=O)N2CCSCC2)CN1CCc1cccc(F)c1` (centres unmarked) reads 23.7%; that for `Cc1cc2c(cc1C)N(C(=O)CSC1=NCCS1)C(C)(C)c1ssc(=S)c1-2`, 11.4%; that for `Cc1ccc(Cl)cc1NC(=O)NCCN1CCCCC1`, 4.14%. The result for `COc1ccc(C2SCC(=O)N2C)cc1` (centres unmarked) reads 8.75%. As for `Cc1ccc(NC(=O)N2CCc3ccccc3C2)c(C)c1`, the “hERG current change (%, negative = inhibition) at 1uM” value stood at 11.7%.

As for `Cc1onc(-c2ccccc2)c1C(=O)Nc1cccc2nsnc12`, the “hERG current change (%, negative = inhibition) at 1uM” value is 7.88%. The value for `Cc1nccn1CCCNC(=O)CC1C(=O)NCCN1Cc1ccc(F)cc1Cl` (centres unmarked) was 17.2%; that for `COc1ccccc1CCc1nnc(CCC(=O)NC(C)Cc2cccs2)o1` (centres unmarked) was -6.86%. With `Cc1ccc(C(=O)NCCCNC(=O)c2ccccc2C)cn1`, the “hERG current change (%, negative = inhibition) at 1uM” value is given as 8.13%. The result for `Cc1ncsc1C(=O)N1N=C2/C(=C/c3ccccc3)CCCC2C1c1ccccc1` (centres unmarked) reads 17.4%; that for `COC(=O)C1=C(c2ccc(OC)c(OC)c2)C[C@@H]2CC[C@H]1N2C(=O)NCCOc1ccc(OC)cc1`, 8.75%; that for `COc1cccc(C2Nc3cc(Cl)c(S(N)(=O)=O)cc3S(=O)(=O)N2)c1` (centres unmarked), 5.48%. As to `CCN(CCCC(=O)c1ccc(F)cc1)CCc1ccccc1.Cl`, the “hERG current change (%, negative = inhibition) at 1uM” value is recorded as -86.5%. The result for `COC(=O)c1ccc(COc2ccccc2/C=C(\C#N)C(=O)Nc2ccc(C)cc2C)cc1` reads -10%. In the case of `S=c1[nH]nc(-c2cccs2)n1/N=C/c1cn(-c2ccccc2)nc1-c1cccs1`, the “hERG current change (%, negative = inhibition) at 1uM” value is listed as 17.4%. With `CCC(=O)Nc1nc2ccccc2n1CCN(C)C`, the “hERG current change (%, negative = inhibition) at 1uM” value was determined as 10.1%. Turning to `CCc1ccc(N(CC(=O)Nc2sc3c(c2C(=O)OC)CCCC3)S(C)(=O)=O)cc1`, the “hERG current change (%, negative = inhibition) at 1uM” value turned out to be 11.1%. The value for `Cc1cc(NC2C3CC4CC(C3)CC2C4)n2ncnc2n1` (centres unmarked) was -24.2%. The value for `CCn1c(SCC(=O)NCCc2ccccc2)nnc1-c1cccs1` was 5.16%; that for `COc1cc(/C=N/NC(=O)C2COc3ccccc3O2)ccc1O` (centres unmarked) was 2.91%. The value for `O=C(OCn1nnc2ccccc2c1=O)C12CC3CC(CC(O)(C3)C1)C2` was 12.3%; that for `CN(C)S(=O)(=O)c1ccc(N2CCCC2)c(C(=O)Nc2ccccc2OC(F)F)c1` was 5.43%; that for `O=C(NC1CCCCC1NC(=O)c1cccs1)c1cccs1` (centres unmarked) was 6.7%. Consider `CCc1nn2c(N3CCOCC3)cc(C)nc2c1-c1ccc(F)cc1`, for which the “hERG current change (%, negative = inhibition) at 1uM” value is reported as 9.19%.

Consider `O=C(Nc1nnc(-c2ccco2)o1)c1ccc([N+](=O)[O-])s1`, for which the “hERG current change (%, negative = inhibition) at 1uM” value was found to be 9.06%. The value for `COc1cccc(OC)c1C(=O)Nn1c(C2CCC2)nc2ccccc2c1=O` was 10.6%; that for `CN(C)c1ccc(NC(=O)c2cn(-c3ccccc3)nc2-c2cccs2)cc1` was 10.8%; that for `Cc1ccccc1CN1CCN(S(=O)(=O)c2ccc(F)cc2)CC1` was 9.67%.

As for `COCc1cc(C)nc(Nc2ccccc2C)c1C#N`, the “hERG current change (%, negative = inhibition) at 1uM” value is listed as -6.21%. The value for `COc1ccc(/C=N/Nc2ncnc3c2[nH]c2ccc(C)cc23)c(OC)c1OC` was 8.4%. `O=C(Nc1cnccn1)c1cccc(C(F)(F)F)c1`: the “hERG current change (%, negative = inhibition) at 1uM” value stood at 2.47%. The value for `CCCCCCn1c(SCC(C)C)nc2c1c(=O)[nH]c(=O)n2C` was 10.1%; that for `O=C(CSc1ccc2c(c1)OCCO2)NC(=O)Cc1ccccc1` was 12.9%.

On to `CN(C)CCNC(=O)c1cc2c(s1)-c1ccccc1OC2`, for which the “hERG current change (%, negative = inhibition) at 1uM” value is recorded as -18.8%.

Regarding `Cc1cc(SCCC(=O)O)nc2ccccc12`, the “hERG current change (%, negative = inhibition) at 1uM” value is 22.5%. Turning to `O=C(Nc1ccc(F)cc1)Nc1ccc2ccccc2n1`, the “hERG current change (%, negative = inhibition) at 1uM” value is 10.5%. The value for `O=C(O)c1ccc(CP(=O)(c2ccccc2)c2ccccc2)cc1` was 14%; that for `CC(=O)Nc1ccc(S(=O)(=O)NC2(C(F)(F)F)NC(=O)N(C3CCCCC3)C2=O)cc1` (centres unmarked) was 9.82%. For the compound `COc1ccc(C(=O)Nc2ccc3c(c2)OCO3)cc1OC`, the “hERG current change (%, negative = inhibition) at 1uM” value worked out at 3.07%.

For `COc1ccc(C2Nc3cc(OC)ccc3-n3cccc32)cc1` (centres unmarked), the “hERG current change (%, negative = inhibition) at 1uM” value is recorded as 8.11%. With `COc1ccc(C(CNC(=O)c2ccc(OC)c(S(=O)(=O)N3CCCC3)c2)N2CCCC2)cc1` (centres unmarked), the “hERG current change (%, negative = inhibition) at 1uM” value is recorded as 13.6%. In the case of `COc1cc(OC)cc(C(=O)Nc2cccc3ccccc23)c1`, the “hERG current change (%, negative = inhibition) at 1uM” value was 13.1%. The result for `O=C(c1ccc(Br)s1)N1CCN(S(=O)(=O)c2ccccc2)CC1` reads 6.57%; that for `COc1ccc(CN2CCCC(CO)(Cc3ccc(F)cc3)C2)c(OC)c1OC` (centres unmarked), -49%; that for `O=C(Nc1ccc(F)c(F)c1)c1cc(S(=O)(=O)N2CCN(c3ccccn3)CC2)ccc1F`, 7.92%.

Consider `COc1ccc(S(=O)(=O)N2CCc3ccccc3C2)cc1OC`, for which the “hERG current change (%, negative = inhibition) at 1uM” value is reported as 4%. The result for `Cc1ccc(-c2nc3ncccn3c2Nc2ccccc2C)o1` reads 1.51%; that for `COc1ccccc1N1CCN(c2cc(=O)n(-c3ccccc3Cl)c(=O)[nH]2)CC1`, 13.9%; that for `CCOc1ccc(NC(=O)C2=NN(c3ccccc3)C(=O)CC2)cc1S(=O)(=O)N1CCCCC1`, 5.13%. `CCc1nc2ccccc2c(C(=O)OCCN2C(=O)c3ccccc3C2=O)c1C`: the “hERG current change (%, negative = inhibition) at 1uM” value amounted to 12.4%. For `CCOC(=O)c1c(NC(=O)CNCCOC)sc2c1CCCC2`, the “hERG current change (%, negative = inhibition) at 1uM” value is recorded as 5.71%. `O=C(Nc1ccccc1O)c1c(O)c2c([nH]c1=O)CCCC2`: the “hERG current change (%, negative = inhibition) at 1uM” value was 17.9%.

On to `COc1cc(-n2cnnn2)ccc1S(=O)(=O)N1CCOCC1`, for which the “hERG current change (%, negative = inhibition) at 1uM” value is on record as 6.66%.

On to `Cc1ccc(-c2cc(-c3ccccc3C)[nH]n2)c(O)c1`, for which the “hERG current change (%, negative = inhibition) at 1uM” value was determined as 4.55%. Regarding `O=C(CNc1ccc(F)cc1)N/N=C1\CCCc2ccccc21`, the “hERG current change (%, negative = inhibition) at 1uM” value is on record as 8.18%.

Turning to `O=C(Nc1ccc(F)cc1F)c1cc2n(n1)C(C(F)(F)F)C1CCCCC1N2` (centres unmarked), the “hERG current change (%, negative = inhibition) at 1uM” value stood at 10.2%. Regarding `O=C(COC(=O)c1cccs1)Nc1ccc(S(=O)(=O)N2CCOCC2)cc1`, the “hERG current change (%, negative = inhibition) at 1uM” value is reported as 6.27%. The value for `COc1ccc(CCNC(=O)CSc2nnc(Cc3cccn3C)n2C)cc1OC` was 3.62%; that for `Cc1cc(S(=O)(=O)N2CCN(c3ccc(F)cc3)CC2)ccc1-n1cnnn1` was 3.88%; that for `O=C(Nc1ccccc1-c1ccccc1)c1cccc(C(F)(F)F)c1` was 12.7%. As for `Cc1nn(C)c(C(=O)N/N=C/c2ccncc2)c1Cl`, the “hERG current change (%, negative = inhibition) at 1uM” value is recorded as 7.79%. The result for `Cc1ccc(-n2nnnc2SCC(=O)NCC2(N3CCCCC3)CCCCC2)c(C)c1` reads -201%.

Consider `COc1ccc(C(=O)NCc2nnc(SCC(=O)N3CCCCC3)o2)cc1`, for which the “hERG current change (%, negative = inhibition) at 1uM” value came out at 13.5%.

With `Cc1[nH]n(-c2ccccc2)c(=O)c1N=Nc1ccc(F)cc1`, the “hERG current change (%, negative = inhibition) at 1uM” value worked out at 12%.

Turning to `O=C(c1ccco1)N1CCN(S(=O)(=O)c2ccc3c(c2)CCN3C(=O)C2CC2)CC1`, the “hERG current change (%, negative = inhibition) at 1uM” value came out at 4.55%. With `COc1ccc(C)cc1NC(=O)CSc1nnc2ccc(-c3ccncc3)nn12`, the “hERG current change (%, negative = inhibition) at 1uM” value is given as -15%. As to `O=C(NCCc1c[nH]c2ccccc12)C(=O)NCC1OCCN1S(=O)(=O)c1ccc(F)cc1` (centres unmarked), the “hERG current change (%, negative = inhibition) at 1uM” value is given as -4.12%. The value for `O=C(Nc1ccc(-c2nnc(-c3ccccc3)o2)cc1)C(F)(F)F` was 9.73%; that for `COC(=O)CCc1c(C)c(C#N)c2nc3ccccc3n2c1N1CCCC1` was 4.96%; that for `Cc1c(C(=O)Nc2ccccc2)sc2nc[nH]c(=O)c12` was -8.34%. The result for `NC(=O)C1(c2ccccc2)CCCN1C(=O)c1ccccc1Br` (centres unmarked) reads 11.7%; that for `CCn1c(C)nc2cc(C(=O)NNC(=S)Nc3ccccc3)ccc21`, 16.1%; that for `Cc1nc2ccccc2c(=O)n1NC(=O)c1cccc(Cl)c1`, 12%. For the compound `C(=N\Nc1nc(N2CCCC2)nc(N2CCCC2)n1)/c1ccncc1`, the “hERG current change (%, negative = inhibition) at 1uM” value was 11.2%. Take `CN(C)S(=O)(=O)c1cccc(N=C2NN=C(c3ccccc3)CS2)c1`: the “hERG current change (%, negative = inhibition) at 1uM” value stood at 9.8%.

With `CC(=O)N/N=C/C1=CCC2CC1C2(C)C` (centres unmarked), the “hERG current change (%, negative = inhibition) at 1uM” value is recorded as 39.9%. The value for `O=C(Nc1cccc(F)c1)c1cc(S(=O)(=O)N2CCC3(CC2)OCCO3)ccc1F` was 4.06%.

Regarding `O=C(NCCCN1CCOCC1)C(=O)N/N=C/c1ccc2c(c1)OCO2`, the “hERG current change (%, negative = inhibition) at 1uM” value came to 17.4%.
